About 6,400 (1.6%) of roughly 410,000 compounds were called active. This list was built around the results that the source calls inconclusive (neither active nor inactive); the mix of calls is not that of the screen. Calls follow the shape of the dose curve; as a rule, active = well fitted inhibition curve with a large enough effect; inconclusive = small, poorly fitted or top-dose-only effect; inactive = no such curve, though single readings can be large or run the other way. No potency is given beside an inconclusive call; the fits are too rough.
What follows are molecules tested against Glucagon-like peptide 1 receptor (Homo sapiens) (UniProt P43220) (assay: qHTS of GLP-1 Receptor Inverse Agonists (Inhibition Mode)). Settings: HEK293 GLP-1R CRE-luciferase, luminescence, 24 h, GLP-1R form is constitutively active; activity change, negative = inhibition: at 38.3 µM (top of the series) unless noted.
Method in brief: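 Stable HEK293 clone (constitutively active GLP-1R + cAMP-response luciferase); 200 cells/uL plated, 12 h pre-culture, compound 24 hr, 37 deg C/5% CO2; detection reagent 12 min RT; luminescence.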
% is scaled to controls: 0 for no effect and ±100 for the full control effect; potency is read from the fitted curve at half-maximal effect; tags tell the direction and shape of the fitted curve.
Also: nearly all actives have a fitted effect of over 55% in size.

Sequence of UniProt P43220 (P43220 whole entry, looked up): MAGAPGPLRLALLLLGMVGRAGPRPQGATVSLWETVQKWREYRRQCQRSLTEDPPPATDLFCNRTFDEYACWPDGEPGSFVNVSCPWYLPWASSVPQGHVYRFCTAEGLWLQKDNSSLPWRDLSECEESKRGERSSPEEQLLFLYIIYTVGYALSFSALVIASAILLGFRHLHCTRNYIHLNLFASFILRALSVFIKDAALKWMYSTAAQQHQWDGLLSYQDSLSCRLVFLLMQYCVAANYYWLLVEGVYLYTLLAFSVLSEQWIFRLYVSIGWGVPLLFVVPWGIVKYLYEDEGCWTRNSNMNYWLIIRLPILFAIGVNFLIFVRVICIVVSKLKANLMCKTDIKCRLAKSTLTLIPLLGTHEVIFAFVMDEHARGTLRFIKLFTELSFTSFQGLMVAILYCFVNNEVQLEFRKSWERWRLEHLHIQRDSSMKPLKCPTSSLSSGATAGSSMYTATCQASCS

Q: How did the Potency turn out when CCOC(=O)c1cnn(CCOC(=O)c2ccc(F)cc2)c1NC(=O)c1ccc(F)cc1 was run?
A: inconclusive [inhibitor, full curve, poor fit]

Q: With CC(C)c1ccc(CN2CCN(S(=O)(=O)c3ccc(Cl)s3)CC2)cc1 as the molecule, how does the Potency read?
A: inconclusive [inhibitor, partial curve, poor fit]

Q: Which Potency does the source give for C[C@]12c3[nH]c4ccccc4c3CCN1C(=O)C(CC(=O)NCC13CC4CC(CC(C4)C1)C3)C[C@@H]2C(=O)N1CCOCC1 (stereo partly specified) here?
A: inconclusive [inhibitor, single point]

Q: Which Potency does the source give for CN1CCN(c2ccc(-c3ccnn3C(=O)Nc3cccc(C(F)(F)F)c3)cc2)CC1 here?
A: inconclusive [inhibitor, single point]

Q: For COc1ccc(-c2noc(N3CCC(C(=O)NCCCN4CCCCC4)CC3)n2)cc1, which Potency is on record?
A: inconclusive [inhibitor, single point]

Q: For Cn1cnc2c(=O)oc3ccc(S(=O)(=O)N4CCN(c5cccc(Cl)c5)CC4)cc3c21, which “activity change, negative = inhibition” value is on record?
A: inactive: 6.67%

Q: For Cc1cccc(-c2nc(Cn3c(SCc4cccc(C(F)(F)F)c4)nc4ccncc43)c(C)o2)c1, which Potency is on record?
A: inconclusive [inhibitor, single point]

Q: C(=N/Nc1nc(-c2ccccc2)cc(-c2ccccc2)n1)/c1cccnc1 was tested. Which Potency did it give?
A: inconclusive [inhibitor, partial curve, poor fit]

Q: How did the Potency turn out when CC(C)Oc1ccc(C(=O)Nc2ccccc2N2CCOCC2)cc1 was run?
A: inconclusive [inhibitor, single point]

Q: With CN(CCNC(=O)c1c[nH]c2c1ccc1ccccc12)CCNC(=O)c1c[nH]c2c1ccc1ccccc12 as the molecule, how does the Potency read?
A: inconclusive [inhibitor, partial curve, poor fit]

Q: With COc1cc(C(=O)NC(=S)Nc2ccccc2N2CCOCC2)cc(OC)c1OC as the molecule, how does the Potency read?
A: inconclusive [inhibitor, single point]

Q: Which Potency does the source give for CC(Nc1nc(C(F)(F)F)nc2ccccc12)c1cccs1 (stereo unspecified) here?
A: inconclusive [inhibitor, single point]

Q: With COc1ccc2oc(-c3ccc(C)c(NC(=O)Cc4ccc(Cl)cc4)c3)nc2c1 as the molecule, how does the “activity change, negative = inhibition” value read?
A: inactive: 1.43%

Q: For O=C(NCCc1csc(-c2ccc(F)cc2)n1)c1ccc(Br)o1, which Potency is on record?
A: inconclusive [inhibitor, single point]

Q: Which “activity change, negative = inhibition” value does the source give for CCSc1ncc(Cl)c(C(=O)Nc2c(C(=O)c3ccccc3)oc3ccccc23)n1 here?
A: inactive: 7.74%

Q: For CCOc1cccc(C(=O)Nc2cccc(-c3nnc(-c4ccccc4)o3)c2)c1, which “activity change, negative = inhibition” value is on record?
A: inactive: 6.17%

Q: Which Potency does the source give for COc1cccc(C(NC(C)=O)c2nc(/C=C/c3ccccc3)cs2)c1 (stereo unspecified) here?
A: inconclusive [inhibitor, single point]

Q: How did the Potency turn out when Cc1ccc(NC(=O)CN2C(=O)NC3(CCCc4ccccc43)C2=O)c(Cl)c1 (stereo unspecified) was run?
A: inconclusive [inhibitor, single point]

Q: With CC(C)C[C@H](NC(=O)N1CCn2c1nc1ccccc12)C(=O)NCc1ccco1 as the molecule, how does the Potency read?
A: inconclusive [inhibitor, single point]

Q: With CN(Cc1ccc(C(C)(C)C)cc1)C(=O)C1CCN(C(=O)Nc2ccccc2)CC1 as the molecule, how does the Potency read?
A: inconclusive [inhibitor, single point]

Q: With COc1ccc(S(=O)(=O)N2CC(=O)Nc3ccccc32)cc1Cl as the molecule, how does the “activity change, negative = inhibition” value read?
A: inactive: 2.8%

Q: For Cc1ccc(NC(=S)Nc2ccc(S(=O)(=O)N3CCOCC3)cc2)cc1S(=O)(=O)N1CCOCC1, which Potency is on record?
A: inconclusive [inhibitor, single point]

Q: Cc1cccc(C)c1NC(=O)CN(C)C(=O)C1CCN(c2ncnc3sc(C)c(C)c23)CC1 was tested. Which Potency did it give?
A: inconclusive [inhibitor, single point]

Q: How did the “activity change, negative = inhibition” value turn out when c1ccc(COCCN2CCN(CCOCc3ccccc3)CC2)cc1 was run?
A: inactive: -0.0204%

Q: How did the “activity change, negative = inhibition” value turn out when CCN(CC)C(=O)CSc1nc2nc(C)cc(C)c2c(=O)[nH]1 was run?
A: inactive: 16.1%

Q: Which Potency does the source give for CCc1noc(C)c1C(=O)Nc1cc(Cl)ccc1N1CCCC1 here?
A: inconclusive [inhibitor, single point]

Q: How did the Potency turn out when CC(=O)c1c(C)[nH]c(C(=O)Nc2cccc(S(=O)(=O)N(C)c3ccccc3)c2)c1C was run?
A: inconclusive [inhibitor, partial curve, poor fit]

Q: Which “activity change, negative = inhibition” value does the source give for Cc1cccc(C)c1NC(=O)Cn1nc(C)c2sc3ccccc3c2c1=O here?
A: inactive: 2.82%

Q: How did the Potency turn out when CCS(=O)(=O)c1nc(S(=O)(=O)c2ccc(C)cc2)c(N2CCC(C)CC2)s1 was run?
A: inconclusive [inhibitor, partial curve, poor fit]

Q: With CCOC(=O)C1(Cc2ccc(Cl)cc2)CCN(C(=O)c2sc(C)nc2C)CC1 as the molecule, how does the Potency read?
A: inconclusive [inhibitor, single point]

Q: For COc1ccc(COc2cccc3ccc(C)nc23)cc1F, which Potency is on record?
A: inconclusive [inhibitor, single point]

Q: CC1CCN(c2ncnc3c2cnn3Cc2ccc(Cl)cc2)CC1 was tested. Which Potency did it give?
A: inconclusive [inhibitor, partial curve, poor fit]

Q: How did the “activity change, negative = inhibition” value turn out when CCNC(=O)c1cc2c(c(-c3cccc(-c4cncnc4)c3)n1)[C@H](CCO)N(C(C)=O)C2 was run?
A: inactive: 0%

Q: Which “activity change, negative = inhibition” value does the source give for Cc1cccc(-n2c(O)c(C=Nc3ccc(O)cc3)c3ccccc3c2=O)n1 here?
A: inactive: 12.1%

Q: With COc1ccc(CCNCC(=O)Nc2ccc(C)c(S(=O)(=O)N(C)C)c2)cc1OC as the molecule, how does the “activity change, negative = inhibition” value read?
A: inactive: 2.02%

Q: With CCC(C(=O)NCCc1ccc(C)cc1)n1nc(C)c2c(C)n(-c3ccccc3)nc2c1=O (stereo unspecified) as the molecule, how does the Potency read?
A: inconclusive [inhibitor, partial curve, poor fit]

Q: O=C1CSC(c2ccc(F)cc2)N1c1ccccc1F (stereo unspecified) was tested. Which Potency did it give?
A: inconclusive [inhibitor, partial curve, poor fit]

Q: With CC(C)N(Cc1nccn1C)C(=O)c1cc(COc2cccc(C(F)(F)F)c2)on1 as the molecule, how does the Potency read?
A: inconclusive [inhibitor, partial curve, poor fit]

Q: With Cc1ccc(N2C(=O)N(CC(=O)NCc3ccc(Cl)cc3)C(=O)C2C)cc1 (stereo unspecified) as the molecule, how does the Potency read?
A: inconclusive [inhibitor, single point]

Q: For CN1OC[C@@H]2CN(C(=O)CCc3ccccc3)[C@H](c3cccc(-c4ccccc4)c3)C[C@@H]21, which Potency is on record?
A: inconclusive [inhibitor, single point]

Q: How did the Potency turn out when CN1CCN(c2ccccc2NS(=O)(=O)c2ccc3c(c2)CCN3C(=O)C2CCC2)CC1 was run?
A: inconclusive [inhibitor, partial curve, poor fit]

Q: Which Potency does the source give for COc1cccc(-c2cc(C(=O)NCC3CCCO3)c3cc(C)cc(C)c3n2)c1 (stereo unspecified) here?
A: inconclusive [inhibitor, partial curve, poor fit]

Q: With CCN(CCCNC(=O)Cn1cc2c(n1)CCCC2)c1cccc(C)c1 as the molecule, how does the Potency read?
A: inconclusive [inhibitor, single point]

Q: With CC(C)OP(=O)(OC(C)C)C(NC(=O)c1ccccc1)C(N)=O (stereo unspecified) as the molecule, how does the “activity change, negative = inhibition” value read?
A: inactive: 10.3%

Q: With Cc1ccc(NC(=O)c2ccccc2N2C(=O)C3C4C=CC(C5CC45)C3C2=O)cc1C (stereo unspecified) as the molecule, how does the Potency read?
A: inconclusive [inhibitor, partial curve]

Q: With CCOC(=O)[C@H]1[C@H]2COc3ccc(Br)cc3[C@@H]2N2C(=O)c3ccc(F)cc3NC(=O)[C@@]12C as the molecule, how does the Potency read?
A: inconclusive [inhibitor, single point]

Q: How did the “activity change, negative = inhibition” value turn out when COc1cccc(C(=O)c2cn(CC(=O)Nc3cccc(C)c3C)c3nc(C)ccc3c2=O)c1 was run?
A: inactive: -5.07%

Q: For O=C(N1CCC(n2nc(-c3ccccc3)oc2=O)CC1)C1(c2ccc(Cl)cc2)CC1, which Potency is on record?
A: inconclusive [inhibitor, single point]

Q: Which Potency does the source give for COc1ccc(NC(=O)c2cc(-c3cc(Cl)ccc3C)n[nH]2)cc1OC here?
A: inconclusive [inhibitor, partial curve, poor fit]

Q: CCCn1c(C)cc(C(=O)COC(=O)c2c(C)nn(-c3ccccc3)c2C)c1C was tested. Which Potency did it give?
A: active: 10 µM

Q: How did the Potency turn out when Cc1ccc(C)c(N2CCN(Cc3nnc(-c4ccccc4)o3)CC2)c1 was run?
A: inconclusive [inhibitor, partial curve]

Q: For CCOC(=O)Cn1c(=O)oc2cc(S(=O)(=O)Nc3ccc(N(CC)CC)cc3C)ccc21, which Potency is on record?
A: inconclusive [inhibitor, single point]

Q: Which Potency does the source give for COc1ccc(NC(=O)Nc2ccc(C(C)C)cc2)cc1 here?
A: inconclusive [inhibitor, partial curve, poor fit]

Q: How did the Potency turn out when CCCOc1cc(C)c(S(=O)(=O)NCc2cccs2)cc1C was run?
A: inconclusive [inhibitor, single point]

Q: For CCOc1ccc(Oc2ccc(C(F)(F)F)cc2N)cc1, which Potency is on record?
A: inconclusive [inhibitor, single point]

Q: For CCOC(=O)c1ccccc1NC(=O)Cn1c2ncccc2c(=O)n1-c1ccccc1, which “activity change, negative = inhibition” value is on record?
A: inactive: 9.49%

Q: How did the Potency turn out when COc1ccc(-n2c(Cc3cccn3C)nnc2SCC(=O)Nc2ccc(Cl)cc2)cc1 was run?
A: inconclusive [inhibitor, single point]

Q: With Cc1cc(C)c2cc(CN(Cc3ccco3)C(=O)NCc3ccccc3)c(=O)[nH]c2c1 as the molecule, how does the Potency read?
A: inconclusive [inhibitor, partial curve, poor fit]

Q: How did the Potency turn out when Cc1ccc(NC(=O)CN(C)C(=O)C(C)N2CCN(Cc3ccccc3C)CC2)cc1 (stereo unspecified) was run?
A: inconclusive [inhibitor, partial curve, poor fit]

Q: Which Potency does the source give for COCc1ccc(CN2CCc3c([nH]c4ccccc34)C2C(C)(C)C)o1 (stereo unspecified) here?
A: inconclusive [inhibitor, partial curve, poor fit]

Q: How did the Potency turn out when COc1ccc(C[C@@H]2CN3C(=NC[C@@H]3Cc3ccc(O)cc3)N2C[C@H](C)NC(=O)CCC2CCCCC2)cc1 was run?
A: inconclusive [inhibitor, partial curve, poor fit]
